Test results from the supplement of paper PMC11417369.
± gives the standard deviation of the averaged measurements. This is one part of the list.

What follows are sequences tested on PfAP2-LT AP2 domain (GST-tagged) (assay: gcPBM binding intensity (ln(normalized median fluorescence intensity)); higher = stronger DNA binding).
Method in brief: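 The binding buffer was 1× PBS containing 1% milk, 0.2 mg/ml BSA, 0.5% salmon testes DNA and 0.03% Triton X-100. In it, GST-tagged P. falciparum DNA-binding domains expressed in E. coli were applied for 1 h to an Agilent 4 × 180k array of primer-extended double-stranded 36-bp intergenic genomic probes plus negative controls. Binding intensity, read with Alexa488 anti-GST antibody and a 488 nm scan, is the highest Masliner-normalised natural-log median intensity across replicate spots of either probe orientation.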
“TTATTTCTGAATATTTTTTTTTTTTCTTCTTTTTTA [CACACA_negctrl_site815]” was tested, and the “gcPBM binding intensity (ln)” value was 8.21 ± 0.57.
With “TAATTTTTTAAATTTAAACACACATTTTGTATATGT [CACACA_site8479]” the “gcPBM binding intensity (ln)” value was 8.98 ± 0.47.
In the case of “TATATATATATATATTGTACGAACCTTTTTTTTTTT [XGTACX_site4169]”, the “gcPBM binding intensity (ln)” value is reported as 9.28 ± 0.56.
“TGATACGTATTTATTTCACACACGTTAAAAAAATAA [CACACA_site3914]” was tested, and the “gcPBM binding intensity (ln)” value was 8.74 ± 0.34.
With “TATAAATTTTTATTTACATGCAGTTATTATTTCCAT [TGCATGCA_site41]” the “gcPBM binding intensity (ln)” value was 8.87 ± 0.41.
With “AATAATAAATAAAAATGTACACATACATTTCTATCC [XGTACX_site7057]” the “gcPBM binding intensity (ln)” value was 8.71 ± 0.46.
TTTTTGTTACCTATTGTGCACTTCATATAAATTAAA was tested, and the “gcPBM binding intensity (ln)” value was 8.79 ± 0.45.
For “TATTAAAAGGTTAAAGCATGCATACATATATATGTT [TGCATGCA_site865]”, the “gcPBM binding intensity (ln)” value was 8.79 ± 0.41.
With “ATATATATATATATATGTACATATTTATATTGTAAA [XGTACX_site8878]” the “gcPBM binding intensity (ln)” value was 9.39 ± 0.028.
“TAATGTAATACATATTGTACACATACATATATATTT [XGTACX_site7531]” was tested, and the “gcPBM binding intensity (ln)” value was 8.77 ± 0.47.
For “ATATATAATCATCACACATGCAGCCCTGATGAAAAA [TGCATGCA_site687]”, the “gcPBM binding intensity (ln)” value was 9.02 ± 0.25.
With “GGGTATACCAATATAACACACATATATCTATAATAT [CACACA_site6348]” the “gcPBM binding intensity (ln)” value was 9.15 ± 0.46.
With “TTGAATATGGTTACATGTACGTATCAATATTTTTTA [XGTACX_site4247]” the “gcPBM binding intensity (ln)” value was 8.56 ± 0.42.
In the case of “AATTGTGCATTATATTGTACACGTGTTGTATATATT [XGTACX_site975]”, the “gcPBM binding intensity (ln)” value is reported as 9.18 ± 0.33.
With “TATATAAAACATGGGTGTACCAACATAAATCATATA [XGTACX_site2320]” the “gcPBM binding intensity (ln)” value was 8.87 ± 0.49.
With “ATTTTGTTATGAAACACACACATATAAATATAAATA [CACACA_site7679]” the “gcPBM binding intensity (ln)” value was 8.91 ± 0.33.
“AATACACGCAGACACACACACAAAAAAAAAAAAAAA [CACACA_site6384]” was tested, and the “gcPBM binding intensity (ln)” value was 9.53 ± 0.61.
“ATATATATATATAGTTGTACTTAATTTTATATGTTA [XGTACX_site5256]” was tested, and the “gcPBM binding intensity (ln)” value was 9.28 ± 0.33.
With “TGTTGTATATCTCTATATAGCTATATTGTATATATA [TGCATGCA_negctrl_site323]” the “gcPBM binding intensity (ln)” value was 8.96 ± 0.42.
“TATATTATTTATTAGACACACATTATTAAAATATTT [CACACA_site4737]” was tested, and the “gcPBM binding intensity (ln)” value was 8.58 ± 0.44.
“TTTTACAAATATTACTGTACACATTTTCATATAATT [XGTACX_site17]” was tested, and the “gcPBM binding intensity (ln)” value was 8.81 ± 0.53.
“AAACTTATAAAAAGTAGTACCATAAAATAATACATA [XGTACX_site6523]” was tested, and the “gcPBM binding intensity (ln)” value was 8.78 ± 0.49.
With “CCTTGATATATATAAAGTACATATATATATATATAT [XGTACX_site4325]” the “gcPBM binding intensity (ln)” value was 9.23 ± 0.55.
With “GTGAAATTATTTCCGTGTACACATAAATATATATTT [XGTACX_site3989]” the “gcPBM binding intensity (ln)” value was 8.91 ± 0.42.
In the case of “TATACATTATTATTATGTACTTAAATATATATTATA [XGTACX_site5173]”, the “gcPBM binding intensity (ln)” value is reported as 8.53 ± 0.31.
